{"source": "PubChem BioAssay AID504333", "about": "(National Center for Advancing Translational Sciences (NCATS), 2011)", "note": "In all, about 360,000 compounds went through this assay and about 16,000 (4.4%) were called active. The inconclusive results got no clear call from the source; some entries with a clear call stand among them for comparison. Calls follow the shape of the dose curve; as a rule, active = well fitted inhibition curve with a large enough effect; inconclusive = small, poorly fitted or top-dose-only effect; inactive = no such curve, though single readings can be large or run the other way. Potencies of inconclusive entries are doubtful fits and often do not repeat. % is scaled to controls: 0 for no effect and ±100 for the full control effect; potency is read from the fitted curve at half-maximal effect; tags tell the direction and shape of the fitted curve."}
{"target": "Bromodomain adjacent to zinc finger domain protein 2B (Homo sapiens) (UniProt Q9UIF8)", "sequence (Q9UIF8 whole entry, looked up, the tested form may be a part)": "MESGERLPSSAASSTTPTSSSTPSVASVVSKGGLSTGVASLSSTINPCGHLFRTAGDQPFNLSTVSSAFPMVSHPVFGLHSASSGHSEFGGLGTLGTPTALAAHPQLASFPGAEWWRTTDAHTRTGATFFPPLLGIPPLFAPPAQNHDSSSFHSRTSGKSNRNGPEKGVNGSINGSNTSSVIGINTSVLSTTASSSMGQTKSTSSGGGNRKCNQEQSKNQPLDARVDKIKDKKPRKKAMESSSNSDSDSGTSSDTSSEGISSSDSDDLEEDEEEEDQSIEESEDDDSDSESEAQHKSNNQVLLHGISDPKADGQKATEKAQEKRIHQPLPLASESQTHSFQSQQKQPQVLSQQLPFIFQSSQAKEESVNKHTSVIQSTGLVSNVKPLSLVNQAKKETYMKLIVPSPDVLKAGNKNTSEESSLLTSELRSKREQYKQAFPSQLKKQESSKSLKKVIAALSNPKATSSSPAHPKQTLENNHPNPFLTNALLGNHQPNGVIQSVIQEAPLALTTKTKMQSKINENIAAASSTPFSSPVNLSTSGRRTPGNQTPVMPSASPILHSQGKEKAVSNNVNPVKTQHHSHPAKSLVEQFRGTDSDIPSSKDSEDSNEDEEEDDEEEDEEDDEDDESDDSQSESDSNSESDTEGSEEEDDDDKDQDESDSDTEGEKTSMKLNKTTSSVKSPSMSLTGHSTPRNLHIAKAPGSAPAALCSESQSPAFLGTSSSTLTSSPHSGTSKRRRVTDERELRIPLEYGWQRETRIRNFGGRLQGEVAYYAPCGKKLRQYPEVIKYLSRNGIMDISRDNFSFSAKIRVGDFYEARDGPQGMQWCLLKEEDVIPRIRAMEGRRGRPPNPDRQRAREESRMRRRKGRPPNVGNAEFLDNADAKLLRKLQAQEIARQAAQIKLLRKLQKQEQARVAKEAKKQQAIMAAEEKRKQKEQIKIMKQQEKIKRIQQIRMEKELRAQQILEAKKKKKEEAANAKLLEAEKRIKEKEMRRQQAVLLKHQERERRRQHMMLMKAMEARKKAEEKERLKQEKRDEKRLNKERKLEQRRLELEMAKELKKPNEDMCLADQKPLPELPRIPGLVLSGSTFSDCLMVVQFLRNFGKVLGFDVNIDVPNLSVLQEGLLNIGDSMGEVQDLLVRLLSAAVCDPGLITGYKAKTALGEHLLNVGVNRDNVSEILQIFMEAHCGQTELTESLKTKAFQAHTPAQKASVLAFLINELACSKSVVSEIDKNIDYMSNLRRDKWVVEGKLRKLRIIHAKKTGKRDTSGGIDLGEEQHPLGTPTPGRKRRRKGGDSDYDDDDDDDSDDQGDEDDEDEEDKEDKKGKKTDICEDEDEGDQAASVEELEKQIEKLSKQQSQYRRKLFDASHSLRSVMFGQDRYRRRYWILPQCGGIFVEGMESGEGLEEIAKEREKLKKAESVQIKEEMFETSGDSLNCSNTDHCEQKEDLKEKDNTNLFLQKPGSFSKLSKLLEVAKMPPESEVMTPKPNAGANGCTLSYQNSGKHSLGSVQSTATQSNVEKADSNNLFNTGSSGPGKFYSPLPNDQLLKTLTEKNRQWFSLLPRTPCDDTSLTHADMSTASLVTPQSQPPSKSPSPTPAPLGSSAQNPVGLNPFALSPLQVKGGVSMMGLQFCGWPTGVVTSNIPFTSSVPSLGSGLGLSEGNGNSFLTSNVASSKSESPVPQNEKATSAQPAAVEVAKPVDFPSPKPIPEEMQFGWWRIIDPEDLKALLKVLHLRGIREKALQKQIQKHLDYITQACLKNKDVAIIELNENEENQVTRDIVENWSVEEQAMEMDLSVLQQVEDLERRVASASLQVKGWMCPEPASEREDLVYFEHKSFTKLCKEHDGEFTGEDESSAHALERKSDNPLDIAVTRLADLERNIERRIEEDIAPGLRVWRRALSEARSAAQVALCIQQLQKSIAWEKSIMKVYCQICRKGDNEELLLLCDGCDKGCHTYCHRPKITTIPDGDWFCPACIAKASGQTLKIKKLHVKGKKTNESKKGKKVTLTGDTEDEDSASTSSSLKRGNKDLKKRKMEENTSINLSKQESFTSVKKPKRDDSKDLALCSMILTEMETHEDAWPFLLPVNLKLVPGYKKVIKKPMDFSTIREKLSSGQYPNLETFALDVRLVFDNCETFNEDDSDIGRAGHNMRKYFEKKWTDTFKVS", "assay": "qHTS Assay for Inhibitors of BAZ2B; also: nearly all actives have a fitted effect of over 60% in size", "settings": "AlphaScreen BAZ2B-H3K14Ac peptide displacement; activity change, negative = inhibition: at 114 µM (top of the series)", "in_short": "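BAZ2B (50 nM) with biotin-H3(5-23)K14Ac peptide (50 nM) in PBS pH 7.4, 0.01% Tween-20, preformed 30 min, then compound 30 min at room temperature; top concentration 110uM. AlphaScreen streptavidin donor/nickel chelate acceptor beads (10 ug/mL final), 20 min dark, signal read.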"}
{"smiles": "Nc1nn(-c2ccccc2)c(N)c1N=Nc1ccccc1", "Potency": "active: 39.8 µM"}
{"smiles": "CCCCC1=CC2=C(c3ccco3)C(=O)C(C)(OC(=O)c3ccc(OC)cc3)C(=O)C2=CN1CCc1ccccn1", "note": "(configuration not stated)", "Potency": "inconclusive: 44.7 µM [inhibitor, partial curve]"}
{"smiles": "COc1cc(OC)c(OC)cc1CN1CCSCC1", "Potency": "active: 79.4 µM"}
{"smiles": "CC(C)(C)c1ccc(-c2nc(SCCOc3ccc(Cl)cc3)n3[nH]c(=O)cc3n2)cc1", "Potency": "active: 50.1 µM"}
{"smiles": "Cc1nn(-c2nc3ccccc3[nH]2)c(=O)c2ccccc12", "activity change, negative = inhibition": "inactive: -2.88%"}
{"smiles": "COc1ccc(C2C(C(=O)c3ccccc3)N3c4ccccc4C=CC3C2[N+](=O)[O-])cc1", "note": "(configuration not stated)", "Potency": "inconclusive: 10 µM [inhibitor, full curve, poor fit]"}
{"smiles": "OC(COc1cccc2ccccc12)CN1CCN(c2ccccn2)CC1", "note": "(configuration not stated)", "Potency": "inconclusive: 50.1 µM [inhibitor, partial curve]"}
{"smiles": "COc1ccc2nc(NC(=O)c3nc(S(=O)(=O)Cc4ccccc4F)ncc3Cl)sc2c1", "Potency": "inconclusive: 89.1 µM [inhibitor, single point]"}
{"smiles": "COc1ccc(NC2CC(=O)N(c3cccc(C)c3)C2=O)cc1", "note": "(configuration not stated)", "activity change, negative = inhibition": "inactive: -27.6%"}
{"smiles": "CCC(Sc1ncccc1C(=O)O)C(=O)N1CCCC1", "note": "(configuration not stated)", "Potency": "inconclusive: 89.1 µM [inhibitor, single point]"}
{"smiles": "COc1ccc(NC(=O)c2ccc(=O)[nH]c2)cc1S(=O)(=O)N1CCCCC1", "activity change, negative = inhibition": "inactive: 7.49%"}
{"smiles": "c1coc(-c2ccnc(-n3cccc3)n2)c1", "activity change, negative = inhibition": "inactive: -2.28%"}
{"smiles": "Cc1cc(CNC(=O)c2ccc(C)c([N+](=O)[O-])c2)c2ccccc2n1", "activity change, negative = inhibition": "inactive: -34.9%"}
{"smiles": "O=C(Cn1c(=O)c2cccn2c2cccnc21)N1CCN(c2ccc(Cl)cc2)CC1", "Potency": "inconclusive: 50.1 µM [inhibitor, partial curve]"}
{"smiles": "N#Cc1ccccc1COC(=O)c1ccc2c(c1)OCO2", "activity change, negative = inhibition": "inactive: 33.8%"}
{"smiles": "O=c1[nH]cc(S(=O)(=O)c2ccccc2)[nH]1", "activity change, negative = inhibition": "inactive: 0.724%"}
{"smiles": "Cc1cc(OCCOCCNC(C)C)cc(C)c1Cl", "Potency": "active: 79.4 µM"}
{"smiles": "O=C(c1cnn2c1NC(c1ccco1)CC2C(F)(F)F)N1CCN(c2cccc(Cl)c2)CC1", "note": "(configuration not stated)", "Potency": "inconclusive: 70.8 µM [inhibitor, single point]"}
{"smiles": "CC(=O)Nc1ccc(-n2nnnc2SCC(=O)Nc2cccc(NC(=O)c3ccco3)c2)cc1", "Potency": "inconclusive: 89.1 µM [inhibitor, single point]"}
{"smiles": "COc1cccc2c1C(=O)c1c(O)c3c(c(O)c1C2=O)C[C@@](O)(C(=O)CO)C[C@@H]3O[C@H]1C[C@H](N)[C@H](O)[C@H](C)O1", "Potency": "active: 35.5 µM"}
{"smiles": "O=C(NNc1cccc(Cl)n1)Nc1ccccc1", "Potency": "inconclusive: 100 µM [inhibitor, single point]"}
{"smiles": "O=C(COC(=O)[C@H](Cc1c[nH]c2ccccc12)NC(=O)c1ccc(Cl)cc1)Nc1ccc2c(c1)OCO2", "Potency": "active: 56.2 µM"}
{"smiles": "O=C(CCN1C(=O)/C(=C/c2ccc3c(c2)OCO3)SC1=S)Nc1cccc(C(=O)O)c1", "Potency": "inconclusive: 89.1 µM [inhibitor, single point]"}
{"smiles": "O=c1cccccc1NN=C1CCCCC1", "Potency": "inconclusive: 79.4 µM [inhibitor, partial curve]"}
{"smiles": "CCOc1cc(C(=O)Nc2ncn[nH]2)cc(OCC)c1OCC", "Potency": "active: 56.2 µM"}
{"smiles": "O=C(COc1ccc(F)cc1)Nc1nnc(S(=O)(=O)N2CCc3ccccc32)s1", "Potency": "inconclusive: 89.1 µM [inhibitor, single point]"}
{"smiles": "COc1ccc(/C=N/NC(=O)Cc2csc(Nc3cccc(C(F)(F)F)c3)n2)cc1C", "Potency": "inconclusive: 79.4 µM [inhibitor, partial curve]"}
{"smiles": "CC(=O)N1CCN(S(=O)(=O)c2cccc(C(=O)Nc3ccc(OC(F)F)cc3)c2)CC1", "activity change, negative = inhibition": "inactive: -1.66%"}
{"smiles": "COc1cc2c(cc1OC)C1O[C@](CCCCN3C(=O)c4ccccc4C3=O)(C2)Oc2c1c(=O)oc1ccc(F)cc21", "Potency": "active: 8.91 µM"}
{"smiles": "COc1ccc(-c2cc(C(F)(F)F)nc(SCC(=O)N3CCCCC3)n2)cc1OC", "activity change, negative = inhibition": "inactive: 11.2%"}
{"smiles": "CCS(=O)(=O)N1CCc2cc(C(=O)N3CCN(c4ccc(OC)cc4)CC3)ccc21", "Potency": "inconclusive: 35.5 µM [inhibitor, partial curve]"}
{"smiles": "CCc1cccc(C)c1NC(=O)C(CC)n1nc(C)c2c(C)n(-c3ccccc3)nc2c1=O", "note": "(configuration not stated)", "activity change, negative = inhibition": "inactive: -18.6%"}
{"smiles": "CCc1ccc(C2CC(=O)c3c([nH]c(C(=O)OC4CCC(C)CC4)c3C)C2)cc1", "note": "(configuration not stated)", "activity change, negative = inhibition": "inactive: 0.846%"}
{"smiles": "COc1ccc(S(=O)(=O)NCc2cccn2Cc2cccc(C)c2)cc1Cl", "Potency": "inconclusive: 89.1 µM [inhibitor, single point]"}
{"smiles": "CN(C)c1ccc(NC(=O)Nc2cccc(Cl)c2)cc1", "Potency": "active: 39.8 µM"}
{"smiles": "C=C(C)C1CC=C(C)/C(=N\\NC(=S)Nc2ccc(C)cc2)C1", "note": "(configuration not stated)", "Potency": "inconclusive: 25.1 µM [inhibitor, full curve]"}
{"smiles": "CC(O/N=C\\c1ccccc1O)C(=O)Nc1ccccc1C(=O)N1CCOCC1", "note": "(configuration not stated)", "Potency": "inconclusive: 89.1 µM [inhibitor, single point]"}
{"smiles": "O=C(Nc1ccc(S(=O)(=O)Nc2nccs2)cc1)c1ccc(N2C(=O)c3ccccc3C2=O)cc1", "Potency": "inconclusive: 89.1 µM [inhibitor, single point]"}
{"smiles": "O=C(O)C1CCCCC1C(=O)Nc1ccc2c(c1)OCO2", "note": "(configuration not stated)", "activity change, negative = inhibition": "inactive: 1.08%"}
{"smiles": "CCOc1ccccc1C(=O)Oc1c(S(=O)(=O)c2ccc(C)cc2)c(C)nn1-c1ccccc1", "Potency": "inconclusive: 89.1 µM [inhibitor, single point]"}
{"smiles": "Cc1cc(S(=O)(=O)NCc2ccccc2)ccc1OCC(=O)NCc1ccncc1", "Potency": "inconclusive: 56.2 µM [inhibitor, partial curve]"}
{"smiles": "O=C(NC1CCN(C(=S)NCCc2ccccc2)CC1)C1CC1", "Potency": "inconclusive: 89.1 µM [inhibitor, single point]"}
{"smiles": "Cc1ccc(SCC(=O)Nc2ccc(S(=O)(=O)Nc3nccs3)cc2)cc1", "Potency": "inconclusive: 44.7 µM [inhibitor, partial curve]"}
{"smiles": "COC(=O)C1=C(C)NC(C)=C(C(=O)OC)C1c1ccc(N(C)C)cc1", "Potency": "inconclusive: 50.1 µM [inhibitor, partial curve]"}
{"smiles": "Cc1ccc(NC(=S)c2ccncc2)cc1", "Potency": "inconclusive: 89.1 µM [inhibitor, single point]"}
{"smiles": "N#CSCC(=O)c1cccc2ccccc12", "activity change, negative = inhibition": "inactive: 5.43%"}
{"smiles": "CCCn1c(SC(C)C(=O)O)nc2ccccc21", "note": "(configuration not stated)", "Potency": "inconclusive: 89.1 µM [inhibitor, single point]"}
{"smiles": "CCc1nnc(NC(=O)c2ccc(S(=O)(=O)N3CCCc4ccccc43)cc2)o1", "Potency": "inconclusive: 89.1 µM [inhibitor, single point]"}
{"smiles": "Cc1ccc(Cl)cc1-n1c(CCC(=O)O)ccc1-c1cccs1", "Potency": "inconclusive: 39.8 µM [inhibitor, partial curve]"}
{"smiles": "CC(=O)c1ccc(N2CCc3ccccc3C2)c([N+](=O)[O-])c1", "Potency": "inconclusive: 39.8 µM [inhibitor, partial curve]"}
{"smiles": "COC(=O)\\C(C(C)=O)=C(/C=C/C=C/N(C)C)N(C)C", "Potency": "active: 35.5 µM"}
{"smiles": "CN1CCC2(CC1)N=C(c1ccc(F)cc1)C(=S)N2C(=O)c1ccc(C(C)(C)C)cc1", "Potency": "active: 35.5 µM"}
{"smiles": "CNC(=O)/C(C#N)=C/c1c(N(Cc2ccccc2)Cc2ccccc2)nc2ccccn2c1=O", "Potency": "inconclusive: 44.7 µM [inhibitor, partial curve]"}
{"smiles": "Cc1coc2c(C)c3oc(=O)c(CCC(=O)N[C@@H](C)C(=O)N[C@@H](Cc4ccccc4)C(=O)O)c(C)c3cc12", "Potency": "inconclusive: 89.1 µM [inhibitor, single point]"}
{"smiles": "COc1cc(NC(=O)C2CC(c3c(F)cccc3Cl)=NO2)cc(OC)c1OC", "note": "(configuration not stated)", "activity change, negative = inhibition": "inactive: 4.46%"}
{"smiles": "C/C(=N\\NC(=O)c1ccccc1Cl)c1ccccn1", "Potency": "active: 31.6 µM"}
{"smiles": "O=C1/C(=C\\c2cccs2)Sc2ccc3ccccc3c21", "Potency": "inconclusive: 3.98 µM [inhibitor, full curve]"}
{"smiles": "CC1=CC(=Nc2c(C)n(C)n(-c3ccccc3)c2=O)C=CC1=O", "Potency": "active: 44.7 µM"}
{"smiles": "COc1ccccc1Nc1c2c(nc3ccc(NC(=O)c4ccc(OC)c(OC)c4)cc13)CCCC2", "Potency": "inconclusive: 35.5 µM [inhibitor, full curve]"}
{"smiles": "O=C(CC1=NC2(CCCC2)Cc2ccccc21)N1CCOCC1", "Potency": "active: 50.1 µM"}
{"smiles": "CCCn1c(N)c(N(CCOC)C(=O)c2cc3c(s2)CCCCC3)c(=O)[nH]c1=O", "activity change, negative = inhibition": "inactive: -11.6%"}
{"smiles": "Cc1ccc(OCc2nnc(SCC(=O)O)n2N)cc1", "Potency": "inconclusive: 89.1 µM [inhibitor, single point]"}
{"smiles": "CCOC(=O)c1[nH]nc(-c2cc(CC)c(O)cc2O)c1-c1cscn1", "Potency": "inconclusive: 56.2 µM [inhibitor, partial curve]"}
{"smiles": "CCCc1sc(N/N=C/c2ccccn2)nc1-c1ccc(F)cc1", "Potency": "inconclusive: 39.8 µM [inhibitor, partial curve]"}
{"smiles": "O=C(O)CCCCCNC(=O)c1ccc(Br)cc1", "Potency": "inconclusive: 100 µM [inhibitor, single point]"}
{"smiles": "COc1cc(C(=O)O)ccc1OC(C)=O", "Potency": "inconclusive: 89.1 µM [inhibitor, single point]"}
{"smiles": "O=C(Nc1ccc2nc3n(c(=O)c2c1)CCCCC3)C(=O)Nc1ccccc1F", "activity change, negative = inhibition": "inactive: -1.91%"}
{"smiles": "COCCCNC(=O)c1c(-c2ccccc2)c(-c2ccccc2)nn(C)c1=O", "activity change, negative = inhibition": "inactive: -4.09%"}
{"smiles": "COc1cc(OC)cc(OCC(O)Cn2cnc(-c3ccccc3)c2)c1", "note": "(configuration not stated)", "Potency": "inconclusive: 89.1 µM [inhibitor, single point]"}
{"smiles": "Cc1ccccc1-n1c(SCC(=O)c2cc(C)n(C)c2C)nnc1-c1cccnc1", "Potency": "inconclusive: 56.2 µM [inhibitor, partial curve]"}
{"smiles": "O=C(Cc1ccc(Cl)cc1)Oc1cccc2cccnc12", "Potency": "active: 10 µM"}
{"smiles": "Cc1ccc(Nc2nc(CSc3nnc(-c4ccncc4)n3-c3ccccc3C)cs2)cc1", "Potency": "inconclusive: 79.4 µM [inhibitor, partial curve]"}
